For this assay, the system named is male and female C57BL/6 mice. Put plainly: Δ9-THC drug discrimination, substitution tests. The conditions noted are these: for dose with significant decrease in response rate: compared to vehicle.

Take `CCCCCc1cc(O)c2c(c1)OC(C)(C)[C@@H]1CCC(C)=C[C@@H]21` [Δ^9-THC, Δ^9-tetrahydrocannabinol, reference compound]: where the note is “females vs males”, the “more potent in females than males (Δ9-THC discrimination ED50)” value was found to be 1.5 fold. The “dose with significant decrease in response rate” value (male mice) was 10 mg/kg.

`COC(=O)[C@@H](NC(=O)c1cn(CCCCCF)c2ccccc12)C(C)C` [5F-MMB-PICA, methyl (2S)-2-[[1-(5-fluoropentyl)indole-3-carbonyl]amino]-3-methylbutanoate]: the “less potent than the 3 compounds in the higher potency group” value (males, vs 5F-MDMB-PICA, 5F-EDMB-PINACA, MDMB-4en-PINACA) is reported as 13- to 19 fold. Under “males, vs MMB-FUBICA, FUB-AKB48, MMB-4en-PICA, FUB-144”, the “more potent than the 4 compounds in the second group” value is given as 2.9- to 9.7 fold.

As to `CCCCn1nc(C(=O)N[C@@H](Cc2ccccc2)C(N)=O)c2ccccc21` [APP-BINACA, N-[(2S)-1-amino-1-oxo-3-phenylpropan-2-yl]-1-butylindazole-3-carboxamide], the “dose that significantly suppressed overall responding” value (female mice) was 100 mg/kg. In addition, the “level of substitution (responding on the Δ9-THC-associated aperture)” value (female mice, up to 100 mg/kg) is on record as less than 80%. Further, under “male mice”, the “dose with significant decrease in response rate” value is on record as 100 mg/kg. In addition, the “dose that fully substituted for Δ9-THC” value (male mice, i.p.) was found to be 100 mg/kg.
